Assay results published in publication PMC8633271.
Positions count from the first letter of the chain named. No constants are given. Whether binding was seen depends on the method and setting. Binding seen in cells or lysates may run through a third protein. Some entries that bind do so weakly or less than the wild type. Where a sequence is shown, tags or fusion partners need not be part of it.

Sequences of proteins named here, by UniProt entry; tags and fusion partners are left off.
UniProt Q91YH6: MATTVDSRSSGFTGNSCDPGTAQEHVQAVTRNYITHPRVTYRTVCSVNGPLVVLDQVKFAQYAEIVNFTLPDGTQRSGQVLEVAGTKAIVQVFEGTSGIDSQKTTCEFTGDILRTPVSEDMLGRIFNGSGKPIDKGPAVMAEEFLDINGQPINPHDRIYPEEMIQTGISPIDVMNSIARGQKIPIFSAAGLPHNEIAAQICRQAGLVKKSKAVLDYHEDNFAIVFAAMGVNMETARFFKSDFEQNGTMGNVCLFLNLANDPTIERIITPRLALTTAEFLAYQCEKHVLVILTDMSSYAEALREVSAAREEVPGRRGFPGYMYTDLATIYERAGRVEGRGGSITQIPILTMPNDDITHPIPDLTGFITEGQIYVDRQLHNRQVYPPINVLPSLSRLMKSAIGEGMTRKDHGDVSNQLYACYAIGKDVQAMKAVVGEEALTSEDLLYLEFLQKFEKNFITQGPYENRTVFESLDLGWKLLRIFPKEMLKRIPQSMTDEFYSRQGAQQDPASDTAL

What was measured:
Experiment in all cases: pull-down; purified GST-tagged Ncoa7 TLDc domain (775–943), WT or mutants, as baits; kidney lysate as prey; anti-B1 and anti-GST western blots; repeated three times; only the target purified
[1] = biological target: T1, GST-tagged G802A mutant of the TLDc domain of Ncoa7 (775–943) (UniProt Q6DFV7)
T1 sequence: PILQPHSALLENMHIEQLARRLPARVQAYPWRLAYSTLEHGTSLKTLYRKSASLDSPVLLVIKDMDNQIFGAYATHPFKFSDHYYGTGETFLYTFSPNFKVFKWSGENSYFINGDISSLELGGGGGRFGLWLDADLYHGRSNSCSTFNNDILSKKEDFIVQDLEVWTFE

[2] = biological target: T2, GST-tagged wild-type (WT) TLDc domain of Ncoa7 (775–943) (UniProt Q6DFV7)
T2 sequence: T1 sequence with A28G

[3] = biological target: T3, GST-tagged S817A mutant of the TLDc domain of Ncoa7 (775–943) (UniProt Q6DFV7)
T3 sequence: T1 sequence with A28G, S43A

[4] = biological target: T4, GST-tagged G845A mutant of the TLDc domain of Ncoa7 (775–943) (UniProt Q6DFV7)
T4 sequence: T1 sequence with A28G, G71A

[5] = biological target: T5, GST-tagged L926A mutant of the TLDc domain of Ncoa7 (775–943) (UniProt Q6DFV7)
T5 sequence: T1 sequence with A28G, L152A

[6] = biological target: T6, GST-tagged E938A mutant of the TLDc domain of Ncoa7 (775–943) (UniProt Q6DFV7)
T6 sequence: T1 sequence with A28G, E164A

[7] = biological target: T7, GST-tagged G815A mutant of the TLDc domain of Ncoa7 (775–943) (UniProt Q6DFV7)
T7 sequence: T1 sequence with A28G, G41A

[8] = biological target: T8, GST-tagged G896A mutant of the TLDc domain of Ncoa7 (775–943) (UniProt Q6DFV7)
T8 sequence: T1 sequence with A28G, G122A

binding [1]: binds
binding [2]: binds
binding [3]: binds
binding [4]: no binding
binding [5]: binds
binding [6]: binds
binding [7]: no binding
binding [8]: no binding
Substance: B1 subunit of V-ATPase (from UniProt Q91YH6 1-513)
